Source: PMC4336329 (PLoS ONE, 2015)
Hit rate of the full screen: of about 310,000 compounds, about 14,000 (4.5%) showed an effect of 50% or more. The effect is printed as a negative number. Some of the results follow.

biological target: human ether-à-go-go-related gene (hERG) potassium channel (human, UniProt Q12809); assay: primary screen, population patch clamp on CHO cells stably expressing hERG
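Note: peak tail current of the secondary pulse compared with the same well before compound.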

Chain of human ether-à-go-go-related gene (hERG) potassium channel (Q12809 whole entry, looked up): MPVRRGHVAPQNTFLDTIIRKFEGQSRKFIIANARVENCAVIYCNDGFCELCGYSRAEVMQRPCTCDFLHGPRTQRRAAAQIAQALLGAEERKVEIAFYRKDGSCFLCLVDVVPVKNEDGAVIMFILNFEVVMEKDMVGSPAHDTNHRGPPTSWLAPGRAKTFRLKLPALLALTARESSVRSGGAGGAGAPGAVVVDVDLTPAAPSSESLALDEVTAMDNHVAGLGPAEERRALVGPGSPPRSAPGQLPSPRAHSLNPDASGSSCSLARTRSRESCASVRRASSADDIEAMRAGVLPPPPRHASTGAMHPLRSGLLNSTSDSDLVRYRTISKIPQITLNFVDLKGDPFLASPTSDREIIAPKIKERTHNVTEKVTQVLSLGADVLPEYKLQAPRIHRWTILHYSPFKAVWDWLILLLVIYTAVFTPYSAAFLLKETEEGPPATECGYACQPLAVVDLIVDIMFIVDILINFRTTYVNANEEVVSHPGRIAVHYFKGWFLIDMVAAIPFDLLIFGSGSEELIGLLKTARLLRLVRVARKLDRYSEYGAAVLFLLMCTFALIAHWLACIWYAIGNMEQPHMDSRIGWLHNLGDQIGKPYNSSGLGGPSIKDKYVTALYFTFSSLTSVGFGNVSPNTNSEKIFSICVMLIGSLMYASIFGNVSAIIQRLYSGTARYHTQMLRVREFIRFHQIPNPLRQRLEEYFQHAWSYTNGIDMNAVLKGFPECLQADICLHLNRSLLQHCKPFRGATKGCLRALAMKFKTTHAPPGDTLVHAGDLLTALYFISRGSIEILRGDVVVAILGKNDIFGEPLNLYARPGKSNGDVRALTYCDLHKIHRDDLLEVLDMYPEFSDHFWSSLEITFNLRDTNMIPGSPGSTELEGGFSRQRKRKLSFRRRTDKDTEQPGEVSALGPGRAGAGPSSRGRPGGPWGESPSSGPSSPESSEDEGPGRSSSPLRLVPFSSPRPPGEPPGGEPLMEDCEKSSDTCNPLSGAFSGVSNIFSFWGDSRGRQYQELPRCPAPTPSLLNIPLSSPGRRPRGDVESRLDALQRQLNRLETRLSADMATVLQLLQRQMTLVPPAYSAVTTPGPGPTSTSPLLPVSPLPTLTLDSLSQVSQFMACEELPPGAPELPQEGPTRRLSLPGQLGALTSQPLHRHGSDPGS

Structure (SMILES) | hERG current change (%, negative = inhibition) at 10uM [%]
COc1ccc2oc(=O)cc(-c3cc4cccc(OC)c4o3)c2c1 | 17.3
CCOC(=O)C1CCCN(c2c(NCC3CCCN3CC)c(=O)c2=O)C1 (stereo not drawn) | 14.5
CCC(NC(=O)OC(C)(C)C)C(=O)Oc1ccc2c3c(c(=O)oc2c1)CCC3 (stereo not drawn) | 8.08
CSc1ccc(-c2nnn(Cc3ccccn3)n2)cc1 | -11.5
O=C(CSCCO)Nc1cccc([N+](=O)[O-])c1 | 17.5
Cc1cc(C(=O)Nc2ccccc2C(=O)O)ccc1NC(=O)COc1cccc([N+](=O)[O-])c1 | 19.8
CCOC(=O)c1ccc(-c2ccc3c(=O)c4ccccc4n(C)c3c2)cc1F | 9.61
O=C(NNC(=O)c1ccc(Cl)cc1Cl)c1ccncc1 | 17
COc1ccc(N(C)S(=O)(=O)c2cccc(C(=O)Nc3ccc(N4CCOCC4)cc3)c2)cc1 | -13.9
CN(Cc1ccccc1)C(NC(=O)c1ccccc1)C(Cl)(Cl)Cl (stereo not drawn) | 7.9
O=C(CNC(=O)c1ccco1)NCC(=O)OCc1ccccc1Cl | -11.8
COc1cc(NC(=S)NC2CC(C)(C)NC(C)(C)C2)c(OC)cc1Cl | -3.66
Cn1c(=O)c2c(nc(SCc3ccccc3F)n2C)n(C)c1=O | 13.2
CC(C)C1=CC(=NS(=O)(=O)c2cccc([N+](=O)[O-])c2)C=C(C(C)C)C1=O | 5.69
O=C(NC1CCN(Cc2ccccc2)CC1)c1ccccc1OCc1ccccc1Cl | -69.2
CN(CC(=O)Nc1ccc(C#N)cc1)Cc1ccc(Cl)cc1Cl | -66.8
O=C(NCCCc1ccncc1)C1CCC(=O)N(CCc2cccc(F)c2)C1 (stereo not drawn) | -51.8
O=C(C1=NN[C@@H]2C(=O)N(c3cccc(C(F)(F)F)c3)C(=O)[C@H]12)C(c1ccccc1)c1ccccc1 | -0.206
CN1CCN(S(=O)(=O)c2cccc(C(=O)Nc3sccc3C(N)=O)c2)CC1 | -75.4
CC(C)=NOc1nc(N(C)C)nc(N(C)C)n1 | 4.23
Cc1ccc(N2C(=O)NC(=O)/C(=C\c3cnc(-c4ccccc4)nc3)C2=O)cc1 | 7.17
O=C(O)C1CCC(=O)N(C2CCCCC2)C1c1ccccc1 (stereo not drawn) | 8.08

Structure (SMILES) | hERG current change (%, negative = inhibition) at 10uM [%]
Cc1c2cnn(CC(=O)N3CCC4(CC3)OCCO4)c(=O)c2c(C)n1Cc1ccccc1Cl | 0.64
C=CCNC(=O)c1cccn1-c1ccsc1C(=O)OC | 2.87
CCCc1cc(C(=O)N2CCCC(Cc3ccccc3C)(C(=O)OCC)C2)no1 (stereo not drawn) | -40.7
CSc1ccc(/C=C(/NC(=O)c2ccco2)C(=O)N2CCCCCC2)cc1 | -26.2
O=C(NCC1CC1)[C@]1(C(F)(F)F)C[C@H](CCC2CCCCC2)CCCO1 | 7.76
COc1cc(/C=C(/C(=O)c2cccs2)c2nc3ccccc3[nH]2)cc(OC)c1O | -56.1
O=C(Cc1cccs1)N(c1ccc(F)cc1)C1(C(=O)NC2CCCCC2)CCCC1 | 13.6
O=C(NCCC1CCCCN1S(=O)(=O)c1ccccc1)C(=O)NCc1cccnc1 (stereo not drawn) | -3.45
Cc1cccc(NC(=O)C2CC(=O)N(Cc3ccccc3)C2)n1 (stereo not drawn) | 15.7
CCCCn1c(N)c(N(CCOC)C(=O)C(C)N2C(=O)c3ccccc3C2=O)c(=O)[nH]c1=O (stereo not drawn) | 5.02
CCc1nc(-c2ccccc2)cc(=O)[nH]1 | -6.29
COc1cc(CN(C)Cc2cc(=O)oc3cc(C)c(Cl)cc23)ccc1OC(F)F | 12
Cc1ccc(S(=O)(=O)N2CCN(CC(=O)N/N=C\c3ccccn3)CC2)cc1 | -36.3
CC(C)c1cc(CNC(=O)CC2C(=O)NCCN2CC2CCCCC2)on1 (stereo not drawn) | 11.2
COc1cc(CNCCCCO)ccc1OCc1ccccc1F.Cl | -14.2
Cc1cc(C)n2c(SCc3ccc(C#N)cc3)nnc2n1 | -32.5
Clc1ccc(-c2nc3nc4ccccc4nc3n2Cc2ccco2)cc1 | -12.3
COc1ccc(N2CCOCC2)c(NC(=O)c2ccco2)c1 | -73.1
COc1ccc(Nc2nnc(C)c3ccccc23)cc1C(N)=O | 12.2
CCc1noc2c1/C(=N\O)CC(c1ccccc1)C2 (stereo not drawn) | 4.82
CCCn1c(SCC(=O)Nc2nc(-c3ccc(OC)cc3)cs2)nc2c1c(=O)n(C)c(=O)n2C | 2.71
COc1ccc(C)cc1N/C(N)=N/c1nc(C)cc(C)n1 | -74.4

Structure (SMILES) | hERG current change (%, negative = inhibition) at 10uM [%]
Cc1cccc(N2CCN(C(=O)Cn3cccc3C(=O)c3ccccc3)CC2)c1C | -17.2
O=C(NCc1ccco1)N1c2ccccc2Sc2ccccc21 | -3.6
COCCCn1c(SCC(=O)Nc2ccc(C(=O)OC)cc2)nc2ccccc2c1=O | -25.6
O=S1(=O)N=C(N2CCCc3ccccc32)c2ccccc21 | -8.39
COc1cc(C2NC(=O)NC(C)=C2C(=O)OCC2CCCCC2)cc(Cl)c1O (stereo not drawn) | 5.43
C/C(=N/NC(=O)CSc1nc2ccccc2n1C)c1ccncc1 | 8.51
C=CCn1c(SCC(=O)NC(=O)Cc2ccccc2)nc2ccccc2c1=O | 6.59
CCOC(=O)C(NC(=O)c1ccc(OC)cc1)(N1CCOCC1)C(F)(F)F (stereo not drawn) | 12.8
NC(=O)N/N=C(/CCCCCC/C(=N\NC(N)=O)c1ccccc1)c1ccccc1 | -10.5
CCOc1ccc(NC(=O)CNC(=O)c2cccs2)cc1 | 12.1
CCCCC1CCC(C(=O)Nc2ccccc2N2CCOCC2)CC1 (stereo not drawn) | -34.3
CCCCOc1ccc2c(c1)/C(=C(\C(Cl)=C(Cl)Cl)[N+](=O)[O-])N2 | 27
COc1cccc(NC(=O)CC2(CC(=O)O)CCCC2)c1 | -39.8
COc1ccc(C(=O)c2c(C(F)(F)F)oc3c2C(=O)c2ccccc2C3=O)cc1OC | -2.82
CCN1CCN(CCCNC(=O)c2ccc(NC(=O)C3=CSCCO3)cc2)CC1 | 19.9
COC(=O)c1cccc(NC(=O)CSc2nc(O)c(-c3ccccc3)c(=O)[nH]2)c1 | 11.2
Cc1noc(C)c1CSCC(=O)Nc1cc(S(=O)(=O)N2CCCCC2)ccc1OC(C)C | -18.5
CCOc1ccc(-c2csc(C3COc4ccccc4O3)n2)cc1 (stereo not drawn) | -3.91
COc1cccc(-n2c(=O)[nH]cc(C(=O)Nc3ccc4c(c3)OCCO4)c2=O)c1 | 4.33
COC(=O)c1ccc(C(=O)NN)cc1 | 19.2
O=C1NC2(CCCCC2)N(C(=O)c2ccccc2)C2=C1CCCC2 | 38
Cc1ccc(Oc2ncccc2C(=O)NC2CCSC2=O)cc1 (stereo not drawn) | -6.68

Structure (SMILES) | hERG current change (%, negative = inhibition) at 10uM [%]
CCOC(=O)[C@H]1[C@H]2COc3ccc(Cl)cc3[C@@H]2N2C(=O)c3cc(OC)ccc3NC(=O)[C@@]12C | -12.6
N#Cc1cnn2ccc(-c3cc(N4CCOCC4)ccc3[N+](=O)[O-])nc12 | -1.59
O=C(Cc1coc2cc3c(cc12)CCC3)OCC(=O)N1CCCC1=O | -9.84
CCOC(=O)c1cnc(SCC(=O)N2CCN(C(=O)c3ccco3)CC2)nc1N | -29.3
Cc1noc(C)c1C(=O)Nc1nccs1 | 18.6
O=C(CSc1ncnc2c1oc1ccccc12)Nc1cccc(F)c1 | 6.32
Cc1nn(C)c(C)c1NC(=O)c1cc2nc(-c3ccco3)cc(C(F)(F)F)n2n1 | 15.4
CCc1nnc(NS(=O)(=O)c2ccc(N3C(=O)c4ccc(C(=O)O)cc4C3=O)cc2)s1 | 5.19
CCN1C(=O)N[C@@H](CCc2ccccc2)C(C(=O)OC)=C1C | -5.41
CCNc1nc2c(c(=O)n(C)c(=O)n2C)n1CCCc1ccccc1 | -6.54
N#CCCn1cc(/C=N/O)c(-c2cccc([N+](=O)[O-])c2)n1 | -11.4
COc1ccc(C(C(=O)NC2CCCCC2)N(C(=O)c2ccco2)c2ccccc2C(C)=O)cc1OC (stereo not drawn) | 9.15
CC(C)N(C1=N/C(=C\c2ccco2)C(=O)N1c1ccccc1)C(C)C | 16.2
COc1ccc2[nH]c(=O)c(CN(CCO)S(=O)(=O)c3ccc4c(c3)OCCO4)cc2c1 | -3.37
COC(=O)C1=CNC=C(C(=O)OC)C1c1ccc(C(=O)OC)cc1 | -11.8
O=C(COC(=O)Cc1ccsc1)NCC1CCCCC1 | -6.72
CCNC(=S)N1CCC(C(N)=O)CC1 | 15.6
O=C(N/N=C1\CCCc2ccccc21)c1ccccc1Cl | 0.00628
CCOCCCNC(=O)c1cccs1 | 19.4
[O-][n+]1c2c(nn1-c1ccccc1Cl)-c1nonc1CC2 | -0.263
C/C(CC(=O)Nc1ccc(N(C)C)cc1)=N\NC(=O)c1ccc([N+](=O)[O-])cc1Cl | -14.5
